# Measurements as given in the supplement of paper PMC8728848.
# The other results are listed elsewhere or left out.
# B1: PX14375C-bth-509-28-509 (Bacteroides thetaiotaomicron) (protein)
# chain: RSPQGQFTEDDNPNALVNGKIYNVYTMMRSFDITAGTPAIAIHYLRSEDSEKGSIPSDGSDVAEMYDDFLYTPTNGLLGSYWGKNYAIIYQCNDILDAIAEKETAGQTETEDIINKGEASFFRAYCYFNLVRAFGEVPLVTYKINDASEANIPKTTADKIYEQIDTDLKTAEESLPETWSTEYTGRLTWGAARSLHARTYMMRSDWDNMYKASTDVINKGLYNLKTPYNEIFTDDGENSGGSIFELQCTATAALPQSDVIGSQFCEVQGVRGAGQWDLGWGWHMATQLMADAYETGDPRKNATLLYFRKTDDEPITPENTNEPYGESPISPAMGAYFNKKAYTDPALRKEYTNKGFWVNIRLIRYSDVVLMAAEAANEKNIPGEAVDYLEMVRARARGTNTNILPKITTNDQGELREAIRHERRVELGLEPDRFYDLVRWGIASEVLHAAGKVNYQDKNALLPLPQSEIDKSKGVLVQNPDY
# Experiments:
# Assay in all cases: glycan array binding signal (z-score within array); higher = stronger binding
# Conditions in all cases: glycan notation: IUPAC condensed, linker removed
# Fuc(a1-2)Gal = molecular target: Fuc(a1-2)Gal
# Procedure, shortened: (§1)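 Columns mapping to the same glycan were averaged after glycan names were converted to IUPAC-condensed notation. The data come from 3228 arrays in the Consortium for Functional Glycomics database, limited to those with an available protein sequence. Binding is reported as a within-array Z-score averaged across arrays of one protein sequence and across linkers.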
# Fuc(a1-2)Gal(b1-3)GalNAc = molecular target: Fuc(a1-2)Gal(b1-3)GalNAc
# Procedure, shortened: as §1
# [1] = molecular target: Fuc(a1-2)Gal(b1-3)GalNAc(a1-3)[Fuc(a1-2)]Gal(b1-4)Glc
# Procedure, shortened: as §1
# [2] = molecular target: Fuc(a1-2)Gal(b1-3)GalNAc(a1-3)[Fuc(a1-2)]Gal(b1-4)GlcNAc
# Procedure, shortened: as §1
# [3] = molecular target: Fuc(a1-2)Gal(b1-3)GalNAc(b1-3)Gal
# Procedure, shortened: as §1
# [4] = molecular target: Fuc(a1-2)Gal(b1-3)GalNAc(b1-3)Gal(a1-4)Gal(b1-4)Glc
# Procedure, shortened: as §1
# [5] = molecular target: Fuc(a1-2)Gal(b1-3)GalNAc(b1-4)[Neu5Ac(a2-3)]Gal(b1-4)Glc
# Procedure, shortened: as §1
# Fuc(a1-2)Gal(b1-3)GlcNAc = molecular target: Fuc(a1-2)Gal(b1-3)GlcNAc
# Procedure, shortened: as §1
# [6] = molecular target: Fuc(a1-2)Gal(b1-3)GlcNAc(b1-2)Man(a1-3)[Fuc(a1-2)Gal(b1-3)GlcNAc(b1-2)Man(a1-6)]Man(b1-4)GlcNAc(b1-4)GlcNAc
# Procedure, shortened: as §1
# [7] = molecular target: Fuc(a1-2)Gal(b1-3)GlcNAc(b1-2)Man(a1-3)[Fuc(a1-2)Gal(b1-3)GlcNAc(b1-2)Man(a1-6)]Man(b1-4)GlcNAc(b1-4)[Fuc(a1-6)]GlcNAc
# Procedure, shortened: as §1
# [8] = molecular target: Fuc(a1-2)Gal(b1-3)GlcNAc(b1-3)Gal(b1-4)Glc
# Procedure, shortened: as §1
# [9] = molecular target: Fuc(a1-2)Gal(b1-3)GlcNAc(b1-3)GalNAc
# Procedure, shortened: as §1
# [10] = molecular target: Fuc(a1-2)Gal(b1-3)GlcNAc(b1-3)[Fuc(a1-2)Gal(b1-3)GlcNAc(b1-6)]GalNAc
# Procedure, shortened: as §1
# [11] = molecular target: Fuc(a1-2)Gal(b1-3)GlcNAc(b1-3)[Gal(b1-4)GlcNAc(b1-6)]Gal(b1-4)Glc
# Procedure, shortened: as §1
# [12] = molecular target: Fuc(a1-2)Gal(b1-3)GlcNAc(b1-3)[Neu5Ac(a2-6)Gal(b1-4)GlcNAc(b1-6)]Gal(b1-4)Glc
# Procedure, shortened: as §1
# [13] = molecular target: Fuc(a1-2)Gal(b1-3)GlcNAc6S
# Procedure, shortened: as §1
# [14] = molecular target: Fuc(a1-2)Gal(b1-3)[Fuc(a1-4)]GlcNAc
# Procedure, shortened: as §1
# [15] = molecular target: Fuc(a1-2)Gal(b1-3)[Fuc(a1-4)]GlcNAc(b1-2)Man(a1-3)[Fuc(a1-2)Gal(b1-3)[Fuc(a1-4)]GlcNAc(b1-2)Man(a1-3)]Man(b1-4)GlcNAc(b1-4)GlcNAc
# Procedure, shortened: as §1
# [16] = molecular target: Fuc(a1-2)Gal(b1-3)[Fuc(a1-4)]GlcNAc(b1-2)Man(a1-3)[Fuc(a1-2)Gal(b1-3)[Fuc(a1-4)]GlcNAc(b1-2)Man(a1-6)]Man(b1-4)GlcNAc(b1-4)[Fuc(a1-6)]GlcNAc(b1-4)[Fuc(a1-6)]GlcNAc
# Procedure, shortened: as §1
# [17] = molecular target: Fuc(a1-2)Gal(b1-3)[Fuc(a1-4)]GlcNAc(b1-3)[Fuc(a1-3)[Gal(b1-4)]GlcNAc(b1-6)]Gal(b1-4)Glc
# Procedure, shortened: as §1
# [18] = molecular target: Fuc(a1-2)Gal(b1-3)[Fuc(a1-4)]GlcNAc(b1-3)[Gal(b1-4)GlcNAc(b1-6)]Gal(b1-4)Glc
# Procedure, shortened: as §1
# Fuc(a1-2)Gal(b1-4)Glc = molecular target: Fuc(a1-2)Gal(b1-4)Glc
# Procedure, shortened: as §1
# Fuc(a1-2)Gal(b1-4)Glc6S = molecular target: Fuc(a1-2)Gal(b1-4)Glc6S
# Procedure, shortened: as §1
# Fuc(a1-2)Gal(b1-4)GlcNAc = molecular target: Fuc(a1-2)Gal(b1-4)GlcNAc
# Procedure, shortened: as §1
# [19] = molecular target: Fuc(a1-2)Gal(b1-4)GlcNAc(b1-2)Man
# Procedure, shortened: as §1
# [20] = molecular target: Fuc(a1-2)Gal(b1-4)GlcNAc(b1-2)Man(a1-3)[Fuc(a1-2)Gal(b1-4)GlcNAc(b1-2)Man(a1-6)]Man(b1-4)GlcNAc(b1-4)GlcNAc
# Procedure, shortened: as §1
# [21] = molecular target: Fuc(a1-2)Gal(b1-4)GlcNAc(b1-2)Man(a1-3)[Fuc(a1-2)Gal(b1-4)GlcNAc(b1-2)Man(a1-6)]Man(b1-4)GlcNAc(b1-4)[Fuc(a1-6)]GlcNAc
# Procedure, shortened: as §1
# [22] = molecular target: Fuc(a1-2)Gal(b1-4)GlcNAc(b1-2)[Fuc(a1-2)Gal(b1-4)GlcNAc(b1-4)]Man(a1-3)[Fuc(a1-2)Gal(b1-4)GlcNAc(b1-2)Man(a1-6)]Man(b1-4)GlcNAc(b1-4)GlcNAc
# Procedure, shortened: as §1
# [23] = molecular target: Fuc(a1-2)Gal(b1-4)GlcNAc(b1-3)Gal(b1-4)GlcNAc
# Procedure, shortened: as §1
# [24] = molecular target: Fuc(a1-2)Gal(b1-4)GlcNAc(b1-3)Gal(b1-4)GlcNAc(b1-2)Man(a1-3)[Fuc(a1-2)Gal(b1-4)GlcNAc(b1-3)Gal(b1-4)GlcNAc(b1-2)Man(a1-6)]Man(b1-4)GlcNAc(b1-4)GlcNAc
# Procedure, shortened: as §1
# [25] = molecular target: Fuc(a1-2)Gal(b1-4)GlcNAc(b1-3)Gal(b1-4)GlcNAc(b1-3)Gal(b1-4)GlcNAc
# Procedure, shortened: as §1
# [26] = molecular target: Fuc(a1-2)Gal(b1-4)GlcNAc(b1-3)GalNAc
# Procedure, shortened: as §1
# [27] = molecular target: Fuc(a1-2)Gal(b1-4)GlcNAc(b1-3)[Fuc(a1-2)Gal(b1-4)GlcNAc(b1-6)]GalNAc
# Procedure, shortened: as §1
# [28] = molecular target: Fuc(a1-2)Gal(b1-4)GlcNAc(b1-3)[Fuc(a1-3)[Gal(b1-4)]GlcNAc(b1-6)]Gal(b1-4)Glc
# Procedure, shortened: as §1
# [29] = molecular target: Fuc(a1-2)Gal(b1-4)GlcNAc(b1-6)GalNAc
# Procedure, shortened: as §1
# [30] = molecular target: Fuc(a1-2)Gal(b1-4)GlcNAc6S
# Procedure, shortened: as §1
# [31] = molecular target: Fuc(a1-2)Gal(b1-4)[Fuc(a1-3)]GlcNAc
# Procedure, shortened: as §1
# [32] = molecular target: Fuc(a1-2)Gal(b1-4)[Fuc(a1-3)]GlcNAc(b1-2)Man(a1-3)[Fuc(a1-2)Gal(b1-4)[Fuc(a1-3)]GlcNAc(b1-2)Man(a1-6)]Man(b1-4)GlcNAc(b1-4)[Fuc(a1-6)]GlcNAc
# Procedure, shortened: as §1
# [33] = molecular target: Fuc(a1-2)Gal(b1-4)[Fuc(a1-3)]GlcNAc(b1-2)[Fuc(a1-2)Gal(b1-4)[Fuc(a1-3)]GlcNAc(b1-4)]Man(a1-3)[Fuc(a1-2)Gal(b1-4)[Fuc(a1-3)]GlcNAc(b1-2)Man(a1-6)]Man(b1-4)GlcNAc(b1-4)GlcNAc
# Procedure, shortened: as §1
# [34] = molecular target: Fuc(a1-2)Gal(b1-4)[Fuc(a1-3)]GlcNAc(b1-3)Gal(b1-4)[Fuc(a1-3)]GlcNAc
# Procedure, shortened: as §1
# [35] = molecular target: Fuc(a1-2)Gal(b1-4)[Fuc(a1-3)]GlcNAc(b1-3)Gal(b1-4)[Fuc(a1-3)]GlcNAc(b1-3)Gal(b1-4)[Fuc(a1-3)]GlcNAc
# Procedure, shortened: as §1
# [36] = molecular target: Fuc(a1-2)Gal(b1-4)[Fuc(a1-3)]GlcNAc(b1-3)GalNAc
# Procedure, shortened: as §1
# [37] = molecular target: Fuc(a1-2)Gal(b1-4)[Fuc(a1-3)]GlcNAc(b1-3)[Neu5Ac(a2-6)Gal(b1-4)GlcNAc(b1-6)]Gal(b1-4)Glc
# Procedure, shortened: as §1
# [38] = molecular target: Fuc(a1-2)Gal3S(b1-4)GlcNAc
# Procedure, shortened: as §1
# [39] = molecular target: Fuc(a1-2)Gal6S(b1-3)GlcNAc
# Procedure, shortened: as §1
binder,measurement,setting,value
B1,glycan array binding signal (z-score),Fuc(a1-2)Gal,-0.306
same,glycan array binding signal (z-score),Fuc(a1-2)Gal(b1-3)GalNAc,-0.359
same,glycan array binding signal (z-score),[1],-0.457
same,glycan array binding signal (z-score),[2],-0.418
same,glycan array binding signal (z-score),[3],-0.482
same,glycan array binding signal (z-score),[4],-0.295
same,glycan array binding signal (z-score),[5],-0.29
same,glycan array binding signal (z-score),Fuc(a1-2)Gal(b1-3)GlcNAc,-0.347
same,glycan array binding signal (z-score),[6],1.63
same,glycan array binding signal (z-score),[7],-0.46
same,glycan array binding signal (z-score),[8],-0.382
same,glycan array binding signal (z-score),[9],-0.373
same,glycan array binding signal (z-score),[10],-0.373
same,glycan array binding signal (z-score),[11],-0.378
same,glycan array binding signal (z-score),[12],-0.346
same,glycan array binding signal (z-score),[13],-0.298
same,glycan array binding signal (z-score),[14],-0.397
same,glycan array binding signal (z-score),[15],0.297
same,glycan array binding signal (z-score),[16],-0.263
same,glycan array binding signal (z-score),[17],-0.142
same,glycan array binding signal (z-score),[18],-0.161
same,glycan array binding signal (z-score),Fuc(a1-2)Gal(b1-4)Glc,-0.041
same,glycan array binding signal (z-score),Fuc(a1-2)Gal(b1-4)Glc6S,-0.117
same,glycan array binding signal (z-score),Fuc(a1-2)Gal(b1-4)GlcNAc,-0.376
same,glycan array binding signal (z-score),[19],-0.346
same,glycan array binding signal (z-score),[20],0.786
same,glycan array binding signal (z-score),[21],-0.142
same,glycan array binding signal (z-score),[22],0.361
same,glycan array binding signal (z-score),[23],-0.047
same,glycan array binding signal (z-score),[24],-0.038
same,glycan array binding signal (z-score),[25],-0.427
same,glycan array binding signal (z-score),[26],-0.317
same,glycan array binding signal (z-score),[27],-0.14
same,glycan array binding signal (z-score),[28],-0.36
same,glycan array binding signal (z-score),[29],0.925
same,glycan array binding signal (z-score),[30],-0.011
same,glycan array binding signal (z-score),[31],-0.287
same,glycan array binding signal (z-score),[32],-0.304
same,glycan array binding signal (z-score),[33],-0.328
same,glycan array binding signal (z-score),[34],-0.089
same,glycan array binding signal (z-score),[35],-0.371
same,glycan array binding signal (z-score),[36],-0.138
same,glycan array binding signal (z-score),[37],0.026
same,glycan array binding signal (z-score),[38],-0.285
same,glycan array binding signal (z-score),[39],-0.144
